In publication PMC7819943, “Rice protein-binding microarrays: a tool to detect cis-acting elements near promoter regions in rice”:
Some of the results follow.

What follows are sequences tested against T1, OsWOX13 (Oryza sativa, UniProt Q5QMM3 1-267) (assay: protein-binding microarray (RPBM); PBS, 2% BSA, 51.3 ng/ul salmon testes DNA, 50 uM zinc acetate, 200 nM TF, 25 C, 1 h; high values mean tight binding). Details: protein: recombinant; tags: N-terminal polyhistidine and DsRed monomer fusion (pET32a); label: CyDye5-dUTP incorporated in the synthesized complementary strand; 3' TTTTT single-stranded linker to array surface; dsDNA, one strand shown.
T1 sequence: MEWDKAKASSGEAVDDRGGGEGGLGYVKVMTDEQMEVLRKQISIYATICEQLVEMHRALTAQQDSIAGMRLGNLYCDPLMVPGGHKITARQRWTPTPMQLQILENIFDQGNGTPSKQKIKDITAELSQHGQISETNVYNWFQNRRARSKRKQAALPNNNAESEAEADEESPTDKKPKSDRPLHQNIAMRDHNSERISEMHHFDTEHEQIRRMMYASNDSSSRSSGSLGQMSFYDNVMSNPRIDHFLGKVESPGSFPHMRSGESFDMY
Method in brief: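 Binding signal is reported as fluorescence intensity per feature (arbitrary units) from an Axon 4000B scanner. Incubation used 200 nM of each Ni–NTA-purified, N-terminally polyhistidine- and DsRed-fused transcription factor from E. coli BL21-CodonPlus on a double-stranded custom Agilent array for 1 h at 25 °C, with 50 µM zinc acetate in the buffer, followed by washing.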

| Sequence | binding signal |
| --- | --- |
| TTTAATTTCTTTTATTTCCTTTAGGCATAAAGACTGAATGCGGAGTCACCTAGTGCAG | 20900 fluorescence intensity (a.u.) |
| AGCCACTAACTGAATGAACAGGACACAAACAGTTCTACGACGGAGTCACCTAGTGCAG | 12600 fluorescence intensity (a.u.) |
| CATCGATTGATAGCTACCTGACGAGACTACCCTATCACCACGGAGTCACCTAGTGCAG | 41100 fluorescence intensity (a.u.) |
| CGATCATATTTTAAATTATAATTAAGTATAACGATAGATGCGGAGTCACCTAGTGCAG | 6500 fluorescence intensity (a.u.) |
| GAGATATTATCTTGATGGGATTGCTTGGGTACCCCTGTTCCGGAGTCACCTAGTGCAG | 4090 fluorescence intensity (a.u.) |
| GAAGTGGATTGGAATTTGCAACAACCCAGGAAAACACGGCCGGAGTCACCTAGTGCAG | 8600 fluorescence intensity (a.u.) |
| GCCATTGATTGCCCATGCACTGACACGACCACAGATGCCTCGGAGTCACCTAGTGCAG | 27900 fluorescence intensity (a.u.) |
| GCGATTTAAACTCGATTAATAGACTAGGAACGTCATGTGGCGGAGTCACCTAGTGCAG | 10700 fluorescence intensity (a.u.) |
| TTCTGTGTGATTATATGAAGCTAGGGTCTGACCGCCTCACCGGAGTCACCTAGTGCAG | 5710 fluorescence intensity (a.u.) |
| TACGGAAAATGACAATAATTTATTTGAAAATCGTAACTCCCGGAGTCACCTAGTGCAG | 9400 fluorescence intensity (a.u.) |
| TGAAACATAAATGATAGGAATATTTCCCCTACTTGCTCAACGGAGTCACCTAGTGCAG | 5230 fluorescence intensity (a.u.) |
| TCAAGCCCTAATTATTGCTCAAGGCTAGTGAGAGTCGTAGCGGAGTCACCTAGTGCAG | 4530 fluorescence intensity (a.u.) |
| CTCACATGTATAAATGATTTAAATTGTATATATACTTGCTCGGAGTCACCTAGTGCAG | 11200 fluorescence intensity (a.u.) |
| CAAATTAGACAAATATATCAAACTAGACTACTAAAACACTCGGAGTCACCTAGTGCAG | 14400 fluorescence intensity (a.u.) |
| ACCAAATTGCAATACATCAAACATATCTTCATTTCCAGAACGGAGTCACCTAGTGCAG | 7140 fluorescence intensity (a.u.) |
| AAAATTTGATGAGAGATTAGTTAAAGAAAGTGAACATGGACGGAGTCACCTAGTGCAG | 8740 fluorescence intensity (a.u.) |
| ACAAGATTGACTCGACTAGTTTTAACCTGTGGTATCCCTACGGAGTCACCTAGTGCAG | 36400 fluorescence intensity (a.u.) |
| TGTTATCAAGATTGAAAGAGGAAAAGTTACAAATTGCAAACGGAGTCACCTAGTGCAG | 4620 fluorescence intensity (a.u.) |
| AGATGATTTGGAGCTAGTAGTTGGCTGTATTATTAAACTTCGGAGTCACCTAGTGCAG | 24300 fluorescence intensity (a.u.) |
| TACCCATCTTCCATTGACAGACAATTGGGCCCCACTCCGCCGGAGTCACCTAGTGCAG | 7450 fluorescence intensity (a.u.) |
| TCTGATAGCTTGTGAGGGTTTCATTCATCCTCTGCTAGTGCGGAGTCACCTAGTGCAG | 6630 fluorescence intensity (a.u.) |

| Sequence | binding signal |
| --- | --- |
| CATGGTCTATTGATTAGGTGCTAATTAATCACTGGTGAGGCGGAGTCACCTAGTGCAG | 28600 fluorescence intensity (a.u.) |
| GATTATAATTTGTAAGATAATTGACCATGGAGAAGATTCACGGAGTCACCTAGTGCAG | 16300 fluorescence intensity (a.u.) |
| CCACTGACAGGTGGCTTCTTTTGAGTCCTTGTGTAACATGCGGAGTCACCTAGTGCAG | 9840 fluorescence intensity (a.u.) |
| AACAATCAATCTTCATAAATCTACTCTTCTGTTTCAAAATCGGAGTCACCTAGTGCAG | 4360 fluorescence intensity (a.u.) |
| TCGTAATTGCTGCTTCGATTCCTCTGAATATATGAATGCACGGAGTCACCTAGTGCAG | 29800 fluorescence intensity (a.u.) |
| GATAGCAATTAATTAGTTTATGCCTCTCTTGACAGGGACACGGAGTCACCTAGTGCAG | 19700 fluorescence intensity (a.u.) |
| ATTAATATCGTTATGATTTGATACGATTTGGTCTTCCCTTCGGAGTCACCTAGTGCAG | 13600 fluorescence intensity (a.u.) |
| ATTTGATTTGCTTCTTTAACTTTTGGAACTAGAGTAAGTACGGAGTCACCTAGTGCAG | 33200 fluorescence intensity (a.u.) |
| GCTAGTGCCCTGTTGATTGTGAAAGAATTTGCTAGTTTCCCGGAGTCACCTAGTGCAG | 3800 fluorescence intensity (a.u.) |
| TTTAGTAATTGGTAGAGCTCAAATTTCTAAATTTAACTTCCGGAGTCACCTAGTGCAG | 6730 fluorescence intensity (a.u.) |
| CACACGTAATTGATACACATTACCATCACTATCAACCACTCGGAGTCACCTAGTGCAG | 48700 fluorescence intensity (a.u.) |
| TTATACATCCAAATTTGATTGTTGCGTGCTTATTTTGTTGCGGAGTCACCTAGTGCAG | 13700 fluorescence intensity (a.u.) |
| TGATATTTCTGTTTATTTGATTTACATGATACACTAATTTCGGAGTCACCTAGTGCAG | 3560 fluorescence intensity (a.u.) |
| GTATGCTATCCTCTGTCCCTTGATGAACTGAAAGGGACACCGGAGTCACCTAGTGCAG | 5930 fluorescence intensity (a.u.) |
| TTAGATTGCGCTCGCCTGATTCGCTGCATCTTGTTCTTCTCGGAGTCACCTAGTGCAG | 4270 fluorescence intensity (a.u.) |
| TAATTAAAACACAATCAATCATACGTTAATACCATCTCATCGGAGTCACCTAGTGCAG | 14300 fluorescence intensity (a.u.) |
| GTAAAGATCTCTGATTGAAACTGGACATGCCACAACAAACCGGAGTCACCTAGTGCAG | 10700 fluorescence intensity (a.u.) |
| TTGAGCCAGTTATTGGCGCAGATTATCGACTTGATTGTAGCGGAGTCACCTAGTGCAG | 8380 fluorescence intensity (a.u.) |
| GCGATGATTGGCTTGCACTCTGCCACGTAGGATCCGCTCCCGGAGTCACCTAGTGCAG | 39400 fluorescence intensity (a.u.) |
| AAATGATGGATTTAATTCGATATCTCGATCGTAATTTACACGGAGTCACCTAGTGCAG | 3420 fluorescence intensity (a.u.) |
| TTAAATTTTCTATATAAATCTATTCAAATCTGCATAAATGCGGAGTCACCTAGTGCAG | 3870 fluorescence intensity (a.u.) |
